From PubChem BioAssay AID463173 (ICCB-Longwood Screening Facility, Harvard Medical School, 2010)
In all, about 52,000 compounds went through this assay and about 4,300 (8.3%) were called active. Cut-off read from the data, not from the text of the source: active = survival mostly below about 52% (no sharp cut-off); inactive = mostly above about 56%. This is one part of the list.

tested on: DeltatarO mutant; assay: growth inhibition of S. aureus wild type versus tarO mutant, primary screen, teichoic acid synthesis inhibitors, RN4220, OD600 (AID 463173); details: OD600, 18 h, hits give low values, screened at 18.75 µg/mL (by protocol)

SMILES	survival
Cc1ccc(C)c(N2CCN(c3nc4ccccc4c(=O)n3-c3ccccc3)CC2)c1	inactive: 70%
O=c1c2c3c(sc2n(Cc2ccc(F)cc2Cl)c(=O)n1-c1ccc(Cl)cc1)CCC3	inactive: 146%
Cc1ccc(NC(=O)c2sc3ncnc(N(C)C4CCCCC4)c3c2C)cc1	inactive: 144%
C[N+](C)(C)CC(O)COc1ccccc1 (configuration not stated)	inactive: 82%
CCOC(=O)COc1nc(C)c(Br)c(OC)n1	inactive: 81%
Cc1ccc(C(=O)Nc2ccc3[nH]c(=O)c(=O)[nH]c3c2)cc1	inactive: 95%
CC(C)Oc1ccc(CNC(=O)Cn2c(-c3cccs3)cc3ccccc32)cc1	inactive: 74%
COc1cc(NC(=O)CC2C(=O)N(c3cccc(C)c3)C(=O)N2Cc2cccs2)cc(OC)c1 (configuration not stated)	inactive: 66%
Cc1ccc(C2CCN(C(=O)Nc3ccc(C)c(C)c3)C2)cc1 (configuration not stated)	inactive: 102%
CC1CCC(CC(=O)O)(CC(=O)O)CC1	inactive: 85%
CCS(=O)(=O)N1CCc2cc(C(=O)NCCc3ccc(OC)c(OC)c3)ccc21	inactive: 69%
COc1cccc(C(=O)Nc2ccc(S(=O)(=O)N(Cc3ccccc3)c3ccccc3)cc2)c1	inactive: 82%
O=C(Nc1ccc(Cl)c(-c2nc3cc(Cl)ccc3o2)c1)c1cc2ccccc2o1	inactive: 70%
Oc1c(Cl)cc(Cl)cc1CNn1cnnc1	inactive: 101%
CCOC(=O)c1c(S(=O)(=O)NCC(=O)N(C)c2ccc(C)cc2)c(C)n(C)c1C	inactive: 91%
Cc1ccccc1NS(=O)(=O)c1nnc(NC(=O)c2ccco2)s1	inactive: 88%
COc1ccc(CCC(=O)NCCc2csc(-c3cccc(C)c3)n2)cc1	inactive: 87%
Cc1ccccc1-c1nc(SCC(=O)N(C)c2ccccc2)c2c(=O)n(C)c(=O)n(C)c2n1	inactive: 67%
Cc1ccccc1OCc1ccc(-c2nc(C#N)c(N3CCC(C(N)=O)CC3)o2)o1	active: 38%

SMILES	survival
CCOc1ccc2cc(-c3nnc(Nc4ccc(C)cc4)s3)c(=O)oc2c1	inactive: 80%
COC(=O)CSc1nc2cc(OC)c(OC)cc2cc1C	inactive: 95%
COc1ccc(NC(=O)c2ccc(NC(=O)CCS(=O)(=O)c3cccs3)cc2)cc1	inactive: 55%
CCOc1ccc2c(c1)c(=O)c(S(=O)(=O)c1ccc(Cl)cc1)cn2Cc1ccccc1C	inactive: 73%
CCN(CCCNC(=O)Cn1ncc2c([nH]c3ccc(C)cc32)c1=O)Cc1ccccc1	inactive: 79%
COc1ccc(NC(=O)C(=O)NCc2ccco2)cc1	inactive: 55%
CC(=O)NNc1nc(Cl)nc(N(C)C)n1	inactive: 81%
Clc1cccc(CSc2nnc(C3CCNCC3)o2)c1	inactive: 104%
CC(C)n1c(=N)c(C(=O)NC2CCCCC2)cc2c(=O)n3ccccc3nc21	inactive: 73%
CCc1ccccc1N1C(=O)N(CC(=O)c2ccc(OC)cc2)c2ccccc2S1(=O)=O	inactive: 79%
CCc1cccc(NC(=O)Cn2nc3c4cc(F)ccc4n(Cc4cccc(C)c4)cc-3c2=O)c1	inactive: 84%
O=C(O)c1ccccc1SC1CC(=O)N(Cc2ccccc2)C1=O (configuration not stated)	inactive: 81%
COC(=O)CCN(C(=O)C1CCN(S(=O)(=O)c2c(C)noc2/C=C/c2ccccc2F)CC1)c1ccccc1	inactive: 113%
CC(C)Oc1ccc(C(=O)Nc2nonc2-c2ccc(OC(C)C)cc2)cc1	inactive: 75%
CCCNC(=O)c1cnc2c(-c3ccc(OCC)c(OCC)c3)c(C)nn2c1-c1ccccc1	inactive: 92%
CCOC(=O)c1cc(C)n(CC2CCC(C(=O)Nc3cc(OC)cc(OC)c3)CC2)c1C (configuration not stated)	inactive: 144%
COc1cc(NC(=O)CC(c2cccs2)N2Cc3ccccc3C2=O)cc(OC)c1OC (configuration not stated)	inactive: 49%
O=c1[nH]c2cc3c(cc2cc1CN(Cc1ccco1)S(=O)(=O)c1cccc(C(F)(F)F)c1)OCO3	inactive: 80%
COc1ccc(-c2nc(SCC(=O)Nc3ccc4c(c3)OCCO4)c(-c3ccccc3)[nH]2)cc1	inactive: 55%

SMILES	survival
COC(=O)CC1Oc2ccc(C)cc2-n2cc(-c3ccc(C)cc3)nc21 (configuration not stated)	active: 37%
Cc1ccc(CSc2oc(-c3cccs3)nc2S(=O)(=O)c2ccc(C)cc2)cc1	inactive: 135%
Cc1cc(N2CCC3CCCC(C2)N3Cc2ccccc2)n2c(n1)nc1ccccc12 (configuration not stated)	inactive: 83%
COC(=O)c1ccccc1NC(=O)C1=C(C)C(=O)OC12CCC(C)CC2 (configuration not stated)	active: -23%
Cc1ccc2oc(C(=O)Nc3sc4c(c3C(=O)NCc3cccnc3)CCCC4)cc(=O)c2c1	inactive: 63%
CCOC(=O)/C(C#N)=C/c1ccc(-c2ccc(C)cc2)o1	inactive: 98%
Cc1ccc(-n2nc3c(=O)n(CCCC(=O)NC(C)c4ccccc4)nc(C)c3c2C)cc1 (configuration not stated)	inactive: 67%
COc1ccccc1Cn1cc(C(=O)c2ccc(C)cc2)c(=O)c2cc(F)cc(F)c21	inactive: 97%
CCCN(CCC)C(=O)Cn1c(=O)n(Cc2ccc(C(=O)NCCc3ccc(Cl)cc3)cc2)c(=O)c2ccccc21	inactive: 106%
CC(=O)c1ccc(NC(=O)Cn2nc(C(F)(F)F)c3c2CCCC3)cc1	inactive: 64%
COc1ccc(OC)c(-c2noc(N3CCN(c4cccc(C)c4C)CC3)n2)c1	inactive: 88%
CCSc1nn(CC(=O)Nc2cccc(Cl)c2)c(N)c1S(=O)(=O)c1ccc(OC)cc1	inactive: 91%
COCCCNC(=O)CCCn1c(=O)c2cccn2c2ccccc21	inactive: 76%
COc1ccccc1CNC(=O)CCC1N=C2c3ccccc3N=C(SCc3ccc(Cl)cc3)N2C1=O (configuration not stated)	active: 32%
O=C1CCCc2cc(S(=O)(=O)NCC3CCC(C(=O)NCc4ccc(F)cc4)CC3)ccc2N1 (configuration not stated)	inactive: 67%
COc1ccccc1N1CCN(S(=O)(=O)c2cccc3nsnc23)CC1	inactive: 88%
CCOC(=O)c1c(C)c(-c2ccccc2)n(CC(=O)Nc2cc(C)cc(C)c2)c1C	inactive: 80%
Cc1ccc(N2CCN(S(=O)(=O)c3ccc(Cl)c4ccccc34)CC2)c(C)c1	inactive: 76%
O=C(Nc1cccc(C(F)(F)F)c1)c1cccc(C(=O)Nc2cccc(C(F)(F)F)c2)c1	inactive: 84%
